# Read counts are not given, so values of variants with three or more changes are uncertain.
# B1: LINE1-mini (parent)
# chain: GGCAGAGCUCAACACAGCGUGGCAAAGUGGCUGUGGCUAGACUGCC
# Variants of: B1
# Experiment: self-cleavage, relative activity (ratio to wild type); higher = more cleavage; in vitro, sequencing; the parent is a self-cleaving ribozyme
row,Variant,self-cleavage
1,GGCAGAGCUCAACAGAGCGUGGCAAAGUGCCUGUGGUUAGACUGCC [C15G G30C C37U],0.01
2,GGCAGAGCUCAACAGAGCGUGUCAAAGUGGCUGUGGCUAGACUUCC [C15G G22U G44U],0.01
3,GGCAGAGCUCAACAUAGCGUGGAAAAGUCUCUGUGGCUAGACCGCC [C15U C23A G29C G30U U43C],0.02
4,GGCAGAGCUCAACAUAUCGUGGCAGAGUGGCUGUGGCUAGACUCCC [C15U G17U A25G G44C],0.06
5,GGCAGAGCUCAACAUAGCGUGGCAAAGUGACUGUGGCUAGACUUCC [C15U G30A G44U],0.05
6,GGCAGAGCUCAACAUAGCGUGACAAAGUGGCUGUGGCUCGACUGCC [C15U G22A A39C],0.1
7,GGCAGAGCUCAACAUAGCGUUGCAAAGUGGCUGUGGAUCGACUGCA [C15U G21U C37A A39C C46A],0.05
8,GGCAGAGCUCAACAGAGCGUGCCAAACUGGCUUGGGCUAGACUACC [C15G G22C G27C G33U U34G G44A],0.01
9,GGCAGAGCUCAACAUAGUGUGGCAAAGUGACUGUGGCUAAACUGCC [C15U C18U G30A G40A],0.01
10,GGCAGAGCUCAACAUAGCGUGGCAAAGUGGCUGUGGCUUGACUCCC [C15U A39U G44C],0.18
11,GGCAGAGCUCAACAUAGGGUGGCAAAGUGGGUCUGGUUAGAUUGCC [C15U C18G C31G G33C C37U C42U],0.06
12,GGCAGAGCUCAACAUAGCGUGGCCAAGUGGCUGUGCCUAGACUGGC [C15U A24C G36C C45G],0.04
13,GGCAGAGCUCAACAUAGCUUGGCAAAGUGGCUGUGGCUAGUCUGGC [C15U G19U A41U C45G],0.76
14,GGCAGAGCUCAACAGAGCGGGGCAAAGUGGCUGUGGCUCCACAGCA [C15G U20G A39C G40C U43A C46A],0
15,GGCAGAGCUCAACAUAGCGUGGCAAAGUGGCUGUGGCUAGGCAGCC [C15U A41G U43A],0
16,GGCAGAGCUCAACAGAGCGUGGCAAAGUUGCUGUGGCUAGAAUGCC [C15G G29U C42A],0.02
17,GGCAGAGCUCAACAGAGCGUGGCAAAGAGGCUGUAGCUAGACUGCC [C15G U28A G35A],0.01
18,GGCAGAGCUCAACAUAGCGUGGCAAAGUGGCUGUCGGUAGACUGCC [C15U G35C C37G],0.04
19,GGCAGAGCUCAACAUAGCGUGGUAAAGUGCCUAUGACUAGACUGCC [C15U C23U G30C G33A G36A],0.07

row,Variant,self-cleavage
1,GGCAGAGCUCAACAUAGCGAGGCAAGGUGGCUAUGGCUAGACUGCC [C15U U20A A26G G33A],1.3
2,GGCAGAGCUCAACAUAGCGUGGUAAAUUGGCUGUGGCUAGACUGCC [C15U C23U G27U],2.71
3,GGCAGAGCUCAACAUAGCGUGGCAACGUGGCUGUGGCUAGAGUGCA [C15U A26C C42G C46A],0.12
4,GGCAGAGCUCAACAGAGCGUUGCAAAGUGGCUGUGGCCAGACUGCC [C15G G21U U38C],0
5,GGCAGAGCUCAACAUUGCGUCGCAAAGUGGCUGUGGCUAUACUGCC [C15U A16U G21C G40U],0
6,GGCAGAGCUCAACAUAGCGUUGCAAAGUGGCUGUGGCUACACUGCC [C15U G21U G40C],0.02
7,GGCAGAGCUCAACAUAACCUUGCAAAUUGGCUAUGGCUCGACUGCC [C15U G17A G19C G21U G27U G33A A39C],0.02
8,GGCAGAGCUCAACAGAGCGUGACAAAGUAGCUCUGGCUAGACUGCC [C15G G22A G29A G33C],0.2
9,GGCAGAGCUCAACAGAGCGUGGCAAACUGGCUGUGGAUAGACUGCC [C15G G27C C37A],0.01
10,GGCAGAGCUCAACAUCGCGUGGCAAAGUUGCUGUCGCUAGACUGCC [C15U A16C G29U G35C],0.81
11,GGCAGAGCUCAACAUAGCGUGGCAAAGUGGCUGUGGCUAGACUUAC [C15U G44U C45A],0.07
12,GGCAGAGCUCAACAUAGCGUAGCAAAGUUGCUGUGACUAGACUGCC [C15U G21A G29U G36A],0.08
13,GGCAGAGCUCAACAUAGCGUGGCAAACUGGCUGAGGCUAUACGGGC [C15U G27C U34A G40U U43G C45G],0.02
14,GGCAGAGCUCAACAUAGCAUGGGAAAGUGGCUGUGGCUAGACUGCU [C15U G19A C23G C46U],0.83
15,GGCAGAGCUCAACAUAGUAUGGCAAAGUGGCUCUGGGUAGACUGCC [C15U C18U G19A G33C C37G],0.02
16,GGCAGAGCUCAACAGAGCGUGGCAAAGUGGCUGUGCCUAGACUCCC [C15G G36C G44C],0.02
17,GGCAGAGCUCAACAUAGCGUGGCAAAGUGGCUGUUGCUAGACUGUC [C15U G35U C45U],0.09
18,GGCAGAGCUCAACAGAGCGUGGCAAAGUGGCUCUGGCUAGACUGUC [C15G G33C C45U],1.18
19,GGCAGAGCUCAACAGAGCGUGGCAAAGAGGCUGAGGCUAGACUGCA [C15G U28A U34A C46A],0.05

row,Variant,self-cleavage
1,GGCAGAGCUCAACAUAGCGUGGAAAAGUGGCUGUGGCUAGGCUGCC [C15U C23A A41G],0.34
2,GGCAGAGCUCAACAUAGUGUGGUAAAGUGGCUGUGGCUAGACUGCA [C15U C18U C23U C46A],0.07
3,GGCAGAGCUCAACAUAUCGUGGCAAAGUGGCUGCGCCUAGACUGCC [C15U G17U U34C G36C],0.06
4,GGCAGAGCUCAACAUAGCGUGCCACAGUGGCUGUGGCUAGACUGCC [C15U G22C A25C],0.05
5,GGCAGAGCUCAACAUAGCGUGGCAAAGUUACUGCGGCUAGUCUGCC [C15U G29U G30A U34C A41U],0.03
6,GGCAGAGCUCAACAUAGCAUGCCAAAGUGGCUGUGGCUAGACUUCC [C15U G19A G22C G44U],0.16
7,GGCAGAGCUCAACAUAGCGUGGCUCAGUGGCUGUGGCUAGACUGCC [C15U A24U A25C],0.4
8,GGCAGAGCUCAACAGAGCGUGGCAAAGUGGCUAUGGCGAGACUGCC [C15G G33A U38G],0.01
9,GGCAGAGCUCAACAUAGCGUGGCAAAGUGGCUGUGACUAGACUGCA [C15U G36A C46A],0.01
10,GGCAGAGCUCAACAUAGCGCGGCAAAGUGGCUGUGGCUAGCCUGCC [C15U U20C A41C],0.13
11,GGCAGAGCUCAACAUCGCGUGGCAAAGUGACUGUGGCUAGACUGCC [C15U A16C G30A],0.02
12,GGCAGAGCUCAACAUAGCGUCGCAAAGUGGCAGUGGCUAGACUGCC [C15U G21C U32A],0.03
13,GGCAGAGCUCAACAUUGCGUGUCAAAGUGGCUGCGGCUAGACUGCC [C15U A16U G22U U34C],0.13
14,GGCAGAGCUCAACAUAACGUAGCAAAGUAGCGGUGGCUAGCCUGCC [C15U G17A G21A G29A U32G A41C],0.02
15,GGCAGAGCUCAACAUAGCCUGGCAAAGUGGCUGUGGCAAGACUGCC [C15U G19C U38A],0.41
16,GGCAGAGCUCAACAUAGCGUGGCAAAGUGGCUGUGGCUAGAUUACC [C15U C42U G44A],0.12
17,GGCAGAGCUCAACAGAGCGAGGCAAAGUGGCUGUGGCUACACUGCC [C15G U20A G40C],0.02
18,GGCAGAGCUCAACAUAGCGUGGCAAAGUGGCUCUGGCUAGCCUGCC [C15U G33C A41C],0.03

# Reference: the RNAGym collection of RNA variant scans (doi:10.7554/elife.90254)
